# Measured values as given in the supplement of paper PMC4206461.
# The list shows a part of the results.
# Tested on: Pseudomonas aeruginosa PA14 dppA1-A5 penta deletion mutant
# Assay: respiration area under curve with compound as sole nitrogen source, 24 h (OmniLog AUC (arbitrary units)); higher = more respiration / better utilisation as nitrogen source, active = 2000 or more; extreme values may be limits of the assay
# Details: plate: PM8
# Experimental: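 Biolog Phenotype MicroArray plates PM6-PM8: each di/tripeptide is the sole nitrogen source. Tetrazolium reduction was read in the OmniLog for 24 h at 37°C and summarised as area under the respiration curve (arbitrary units). Values below 2000 count as no respiration.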
row,Compound,respiration area under curve
1,CC(C)C(NC(=O)C1CCCN1)C(=O)O (stereo unspecified),inactive: 191
2,CC(C)C[C@H](N)C(=O)NCC(=O)NCC(=O)O,active: 6350
3,N[C@@H](CC(=O)O)C(=O)NCC(=O)O,inactive: 1.29
4,C[C@H](N)C(=O)N[C@@H](CC(=O)O)C(=O)O,active: 2130
5,C[C@H](N)C(=O)N[C@@H](CCC(N)=O)C(=O)O,active: 3080
6,N[C@@H](Cc1ccccc1)C(=O)NCC(=O)NCC(=O)O,inactive: 1270
7,C[C@H](NC(=O)CCN)C(=O)O,inactive: 0
8,C[C@@H](O)[C@H](N)C(=O)N[C@@H](CO)C(=O)O,inactive: 108
9,CC(C)C[C@@H](N)C(=O)N[C@H](CC(C)C)C(=O)O,inactive: 0
10,CC(C)C[C@@H](N)C(=O)NCC(=O)O,inactive: 0.429
11,CC[C@H](C)[C@H](NC(=O)[C@@H]1CCCN1)C(=O)O,inactive: 337
